The target in this experiment is T1, purified recombinant Gα13 (Homo sapiens (Human), UniProt Q14344 1-377, limits assumed).
T1 construct: Expression and purification only 'described previously'; Loaded with GDP, GTPγS or AlF4- in some reactions; also called Purified Gα13
T1 sequence: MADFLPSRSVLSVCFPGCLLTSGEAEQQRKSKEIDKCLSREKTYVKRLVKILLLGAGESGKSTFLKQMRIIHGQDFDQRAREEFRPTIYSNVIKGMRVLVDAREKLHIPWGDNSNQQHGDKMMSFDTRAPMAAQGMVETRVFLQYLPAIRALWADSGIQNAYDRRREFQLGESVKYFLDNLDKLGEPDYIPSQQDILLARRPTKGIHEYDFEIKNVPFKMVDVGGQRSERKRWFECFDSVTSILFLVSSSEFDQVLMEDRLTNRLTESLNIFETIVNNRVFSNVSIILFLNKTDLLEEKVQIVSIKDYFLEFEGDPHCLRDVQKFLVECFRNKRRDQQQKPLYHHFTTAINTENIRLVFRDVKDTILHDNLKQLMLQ
Kind of experiment: pull-down of purified Gα13 with GST on glutathione beads, anti-Gα13 blot.

B1: glutathione S-transferase (GST) (other)
chain: not shown
notes: Control protein on glutathione beads
Consider B1, for which the binding result is “no binding”.

The record behind these values is patent publication US20160257711A1 (BOARD OF TRUSTEES OF THE UNIVERSITY OF ILLINOIS, published 2016).
